In all, about 360,000 compounds went through this assay and about 6,000 (1.7%) were called active. Roughly 8% stayed inconclusive and do not appear here. Calls follow the shape of the dose curve; as a rule, active = well fitted cell-killing curve with a large enough effect; inconclusive = small, poorly fitted or top-dose-only effect, or effect the other way; inactive = flat fitted curve, though single readings scatter. Only a part is listed here, and it is no random draw.
Assay: qHTS for induction of synthetic lethality in tumor cells producing 2HG: qHTS for the HT-1080-NT fibrosarcoma cell line;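 also: NT is the 2HG producing partner of a matched IDH1 knockdown line; nearly all actives have a fitted effect of over 55% in size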;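 as to activity, negative = less viability: 0% = DMSO-treated cells and -100% = media-only wells without cells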
Conditions: HT-1080-NT fibrosarcoma viability, CellTiter-Glo ATP luminescence, 48 h; series mostly up to 46.1 µM; activity, negative = less viability: at the top concentration
In short: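 Read-out is CellTiter-Glo luminescence after 10 minutes at room temperature, following 48 hours' compound treatment of HT-1080-NT cells (750 cells/well, RPMI, 5% FBS, 37 degrees C).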
Potency is read from the fitted curve at half-maximal effect.

Structure (SMILES)	activity, negative = less viability	Potency
c1cnc(N2CCN(Cc3ccc4c(c3)OCO4)CC2)nc1	inactive: 37%	–
OCC[C@@H]1C[C@@H](O)[C@H](O)[C@]2(CCCc3ccccc3O2)O1	inactive: -2.1%	–
OCC[C@@H]1C[C@@H](O)[C@H](O)[C@]2(OCCc3ccccc32)O1	inactive: 6.85%	–
CCO[C@@H]1OC(C(=O)NC2CC2)=C[C@H](c2ccccc2)[C@H]1CCCO	inactive: -4.02%	–
OCC[C@H]1C[C@@H](O)[C@H](O)[C@]2(OCCc3ccccc32)O1	inactive: 0%	–
O=C1N[C@@H](Cc2ccccc2)C(=O)N2[C@@H]1C[C@@]1(Br)c3ccccc3N(S(=O)(=O)c3ccccc3)[C@@H]21	inactive: 10.2%	–
O=C(NCc1ccccc1)[C@H]1C[C@@H]1[C@H](NP(=O)(c1ccccc1)c1ccccc1)c1ccccc1	inactive: -4.22%	–
Cc1ccc(NC(=O)CN2CC(C)SC2=NC2CCCCC2)cc1 (stereo not given)	inactive: -27.7%	–
C[C@H](CCC(=O)O)[C@H]1CC[C@H]2[C@@H]3[C@H](O)C[C@@H]4C[C@H](O)CC[C@]4(C)[C@H]3C[C@H](O)[C@]12C	–	inactive
C=CC[C@@H](CC(=O)N[C@H](CO)Cc1ccccc1)C(=O)NC[C@H](OC(=O)[C@@H](CC=C)Cc1ccc(F)cc1)c1ccccc1	inactive: -21%	–
CS(=O)(=O)N1Cc2cc(C(=O)NCC3CC3)nc(-c3cccc(-c4cccnc4)c3)c2[C@H]1CCO	inactive: -6.39%	–
CC(=O)NS(=O)(=O)c1ccc(N)cc1	inactive: 7.09%	–
COc1ccc(NC(=O)/C(C#N)=C/c2ccc(Br)o2)cc1	inactive: 11.5%	–
C[C@@H]1CN([C@H](C)CO)C(=O)CCCn2nncc2CO[C@H]1CN(C)Cc1ccncc1	inactive: 11.3%	–
CCOC(=O)[C@H](CCc1ccccc1)N[C@@H](C)C(=O)N1C(C(=O)O)C[C@@H]2CCC[C@@H]21 (stereo not given in full)	inactive: 20.7%	–
COC(C[C@H](O)C[C@@H](O)[C@@H](C)OCc1ccccc1)OC	inactive: -0.964%	–
N#CC1=C(N)C(C#N)(C#N)[C@H](c2ccncc2)[C@H]2CN(C(=O)OCc3ccccc3)CC=C12	inactive: -3.78%	–
COC(C[C@H](O)C[C@H](O)[C@@H](C)OCc1ccccc1)OC	inactive: 21.5%	–
O=C(CCCN1C(=O)/C(=C\c2ccccc2)SC1=S)Nc1ccccc1O	inactive: -6.87%	–
C[C@@H]1C[C@H](Nc2ccccc2)c2ccccc2N1C(=O)c1cccnc1	inactive: -11.7%	–

Structure (SMILES)	activity, negative = less viability	Potency
CN1CCN(CCC=C2c3ccccc3Sc3ccc(S(=O)(=O)N(C)C)cc32)CC1	inactive: -0.159%	–
COc1ccc(O)c(/C=N/NC(=S)NCCc2ccccc2)c1	–	active: 14.6 µM
CCOC(=O)N1CC=C2C(C#N)=C(N)C(C#N)(C#N)[C@H](c3cccs3)[C@H]2C1	inactive: -10.3%	–
COc1cc(Nc2ccccn2)cc(C(=O)Nc2cccc(C(F)(F)F)c2)c1	inactive: -15.5%	–
COc1ccc(-c2nc(NC(=O)c3ccc(OCC(=O)Nc4ccc(F)cc4)c(OC)c3)sc2C)cc1	–	active: 18.4 µM
CCCN1C(=O)S/C(=C/c2ccc(N3CCOCC3)o2)C1=O	inactive: 5.43%	–
O=C1NC[C@@H](c2ccccc2)OC(=O)[C@@H](Cc2ccc(F)cc2)C/C=C\C[C@@H]1CC(=O)N(CCO)Cc1ccccc1	inactive: 11.3%	–
CC(C)C[C@H]1CNC(=S)N1CC1CCCN1C[C@H](Cc1ccccc1)N1C[C@H](Cc2ccc(O)cc2)N(CC2CCCCCC2)C1=S (stereo not given in full)	inactive: -21.2%	–
COc1cc2nc(N3CCN(C(=O)[C@@H]4CCCO4)CC3)nc(N)c2cc1OC	inactive: 0.537%	–
CC(/C=C/c1cccs1)=C\C(=O)O	inactive: 3.1%	–
CCOC(=O)c1[nH]c2ccc(F)cc2c1NC(=O)CN1CCN(C/C=C/c2ccccc2)CC1	–	active: 20.6 µM
Brc1ccc2[nH]c3nc(SCCN4CCOCC4)nnc3c2c1	inactive: -13.2%	–
CC(C(=O)O)c1cccc(C(=O)c2ccccc2)c1 (stereo not given)	inactive: 15.8%	–
COc1ccc(NC(=O)CCN2C(=O)C3C4C=CC(C4)C3C2=O)cc1 (stereo not given)	inactive: -13.5%	–
CN1[C@@H]2CC[C@H]1CC(OC(=O)c1c[nH]c3ccccc13)C2 (stereo not given in full)	inactive: -4.7%	–
CCOC(=O)[C@@H]1[C@H]2COc3cc(OC)ccc3[C@@H]2N2C(=O)N(c3ccc(OC)cc3)C(=O)[C@]12C	inactive: 0%	–
C[C@@H](c1ccccc1)N1C[C@@H](COCc2ccccc2)Oc2cc(N3CCC[C@@H]3CO)ccc2S1(=O)=O	inactive: 0.385%	–
O=C(/C=C/c1ccc([N+](=O)[O-])cc1)c1ccccc(=O)c1O	–	active: 6.51 µM
CCCCCC(=O)N1C[C@@H](n2cc(COC(=O)c3ccccc3)nn2)[C@H](O)C[C@@H]1c1ccc(OC)cc1	inactive: 2.58%	–
NC(=O)c1oc2ccccc2c1NC(=O)c1ccc([N+](=O)[O-])o1	–	active: 1.46 µM

Reference: PubChem BioAssay AID686970 (National Center for Advancing Translational Sciences (NCATS), 2013)
